According to PubChem BioAssay AID1347165 (National Center for Advancing Translational Sciences (NCATS), 2019):
Screen size: about 220,000 compounds; about 5,700 (2.6%) were called active. Inconclusive means that the source gave no clear call. Such entries were picked first, then a sample of the others. Calls come from the whole dose curve; as a rule, active = well fitted inhibition curve with a large enough effect; inconclusive = small, poorly fitted or top-dose-only effect; inactive = no such curve, though single readings can be large or run the other way. Potencies of inconclusive entries are doubtful fits and often do not repeat.

Each molecule was assayed against Lysine-specific demethylase 5B (Homo sapiens) (UniProt Q9UGL1) (assay: Primary screen for KDM5B Histone Demethylases FDH-coupled qHTS). Details: FDH-coupled NADH fluorescence (FDH is formaldehyde dehydrogenase); series mostly up to 57.7 µM.
Sequence of UniProt Q9UGL1 (Q9UGL1 whole entry, looked up): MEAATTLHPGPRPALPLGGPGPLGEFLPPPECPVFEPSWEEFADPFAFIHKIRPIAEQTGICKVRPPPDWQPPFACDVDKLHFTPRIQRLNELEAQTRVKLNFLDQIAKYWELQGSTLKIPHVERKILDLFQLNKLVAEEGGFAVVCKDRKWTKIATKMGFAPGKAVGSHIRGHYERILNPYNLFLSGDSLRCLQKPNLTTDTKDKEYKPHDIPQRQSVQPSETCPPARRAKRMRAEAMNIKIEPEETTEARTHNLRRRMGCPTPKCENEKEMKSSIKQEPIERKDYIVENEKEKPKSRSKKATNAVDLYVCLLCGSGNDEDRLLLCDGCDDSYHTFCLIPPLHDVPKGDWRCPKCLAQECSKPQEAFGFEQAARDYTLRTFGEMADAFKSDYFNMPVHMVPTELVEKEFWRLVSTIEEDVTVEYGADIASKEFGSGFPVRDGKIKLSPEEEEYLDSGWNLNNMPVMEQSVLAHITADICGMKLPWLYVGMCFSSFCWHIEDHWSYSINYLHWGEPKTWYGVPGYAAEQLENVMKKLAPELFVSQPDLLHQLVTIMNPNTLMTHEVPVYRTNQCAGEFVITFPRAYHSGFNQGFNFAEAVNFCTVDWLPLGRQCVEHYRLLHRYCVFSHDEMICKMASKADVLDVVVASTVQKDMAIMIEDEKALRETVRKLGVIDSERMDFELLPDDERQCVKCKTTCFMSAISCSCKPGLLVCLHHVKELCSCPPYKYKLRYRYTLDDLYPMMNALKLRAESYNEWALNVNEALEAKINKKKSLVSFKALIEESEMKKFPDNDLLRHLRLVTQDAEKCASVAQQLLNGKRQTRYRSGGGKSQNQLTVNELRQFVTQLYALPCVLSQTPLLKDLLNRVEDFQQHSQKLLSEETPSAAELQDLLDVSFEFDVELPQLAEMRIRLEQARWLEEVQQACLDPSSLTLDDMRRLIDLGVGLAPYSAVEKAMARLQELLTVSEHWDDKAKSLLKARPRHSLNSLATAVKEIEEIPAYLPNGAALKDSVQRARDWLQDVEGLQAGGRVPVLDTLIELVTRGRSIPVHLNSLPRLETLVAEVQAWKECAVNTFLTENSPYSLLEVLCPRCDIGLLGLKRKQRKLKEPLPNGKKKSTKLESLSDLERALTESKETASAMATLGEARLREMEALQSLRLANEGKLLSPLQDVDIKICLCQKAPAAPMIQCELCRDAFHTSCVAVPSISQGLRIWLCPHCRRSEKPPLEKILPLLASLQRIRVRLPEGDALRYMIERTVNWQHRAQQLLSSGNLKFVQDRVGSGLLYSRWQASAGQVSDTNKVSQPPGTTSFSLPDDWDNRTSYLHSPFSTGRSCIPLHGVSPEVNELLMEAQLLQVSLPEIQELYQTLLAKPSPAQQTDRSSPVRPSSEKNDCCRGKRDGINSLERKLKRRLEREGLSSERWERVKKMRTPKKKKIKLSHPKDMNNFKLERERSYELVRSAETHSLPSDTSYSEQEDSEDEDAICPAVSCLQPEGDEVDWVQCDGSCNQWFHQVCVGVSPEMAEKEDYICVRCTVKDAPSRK
How it was run: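 KDM5BΔAP (200 nM final) in 50 mM HEPES pH 7.5, 0.01% Tween-20 was preincubated 10 min at RT with compound over a concentration range. Substrate mix (H3K4me3 12.5 µM, α-KG 25 µM, Fe²⁺, ascorbate, NAD⁺, FDH) was added, and NADH fluorescence change over 30 min gave dose-response curves.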
Note: nearly all actives have a fitted effect of over 70% in size.
Potency is the fitted concentration of half-maximal effect; tags give direction and shape of the fitted curve.

Compound	Potency
N#Cc1ccc(Oc2ccc(C=O)cc2)cc1C#N	inconclusive: 39.8 µM [inhibitor, single point]
COC(=O)C1=C(c2ccccc2)c2cc(Cl)ccc2S(=O)(=O)N1CC(=O)Nc1cccc(C)c1	inactive
CCc1nc2nc(C)cc(Nc3ccc(OC)cc3)n2n1	inconclusive: 31.6 µM [inhibitor, single point]
Cc1ccc(C(=O)N/C(=C\c2ccco2)C(=O)O)cc1	inconclusive: 22.4 µM [inhibitor, partial curve, poor fit]
O=C(N1CCCCC1)N1CCN(C2CCNCC2)C(=O)C1	active: 89.1 µM
O=C(CSCCN1CCCC1)N1CCC(n2cnnc2)CC1	inactive
O=C(CC1CCCC1)N1CCC(Nc2cccnc2)C1 (stereo not given)	inconclusive: 8.91 µM [inhibitor, partial curve, poor fit]
CC(=O)c1cccc(NC(=O)C(C)Oc2ccc3c(C(C)C)cc(=O)oc3c2)c1 (stereo not given)	inconclusive: 25.1 µM [inhibitor, partial curve, poor fit]
COc1cccc(NC(=O)c2cc3c(N(C)Cc4ccccc4)nc(C)cn3n2)c1	active: 28.2 µM
COc1cccc(CN(Cc2ccco2)c2cnc(S(C)(=O)=O)nc2C(=O)Nc2cccc(Cl)c2C)c1	inactive
O=C(CCc1nc2ccccc2[nH]c1=O)N1CCN(CCn2cncn2)CC1	active: 17.8 µM
O=C(c1cc(F)ccc1F)N1CCCC2(C1)NC(=O)N(Cc1cccc(Cl)c1)C2=O (stereo not given)	inactive
Brc1ccc(-c2ccc(-c3nnc(-c4ccco4)o3)o2)cc1	inactive
COc1ccc(-c2nc(C)c(C(=O)N3CCN(C(C#N)c4ccc(F)cc4)CC3)s2)cc1OC (stereo not given)	inconclusive: 22.4 µM [inhibitor, partial curve, poor fit]
CCCC(=O)Nc1ccccc1NC(=O)c1ccc(C)cc1	inactive
CC(C)(C)/C(O)=C/c1nc2cc(Cl)ccc2oc1=O	inconclusive: 17.8 µM [inhibitor, partial curve, poor fit]
CCOC(=O)c1c(NC(=O)c2nc3nc(C)cc(C(F)F)n3n2)sc2c1CCC(CC)C2 (stereo not given)	inactive
O=C(Nc1cccc(OC(F)(F)F)c1)c1cc(-c2ccc[nH]2)n[nH]1	inactive
COc1cc(C(=O)NC2CCN(c3cc(-c4cccs4)[nH]n3)C2)cc(OC)c1OC (stereo not given)	inconclusive: 8.91 µM [inhibitor, partial curve]
Cc1cc(-c2nc3c(c(=O)[nH]c(=O)n3Cc3ccccc3)n2CC2CCCO2)cc(C)c1O (stereo not given)	inconclusive: 28.2 µM [inhibitor, partial curve, poor fit]
